Results taken from paper PMC12820563, “FoxP3 forms a head-to-head dimer in vivo and stabilizes its multimerization on adjacent microsatellites”.
The other results are listed elsewhere or left out.

What follows are sequences tested against T1, MBP-FoxP1dN (Mus musculus, UniProt P58462 326-579) (assay: PD-seq (MBP pull-down with sequencing); 20 mM Tris-HCl pH 7.5, 100 mM NaCl, 1.5 mM MgCl2, 0.4 uM protein, 0.1 uM dsDNA library, 30 min, room temperature, amylose pull-down; high values mean tight binding). Conditions: protein: recombinant; tags: His6-MBP; chain copies: 2; dsDNA, one strand shown.
T1 sequence: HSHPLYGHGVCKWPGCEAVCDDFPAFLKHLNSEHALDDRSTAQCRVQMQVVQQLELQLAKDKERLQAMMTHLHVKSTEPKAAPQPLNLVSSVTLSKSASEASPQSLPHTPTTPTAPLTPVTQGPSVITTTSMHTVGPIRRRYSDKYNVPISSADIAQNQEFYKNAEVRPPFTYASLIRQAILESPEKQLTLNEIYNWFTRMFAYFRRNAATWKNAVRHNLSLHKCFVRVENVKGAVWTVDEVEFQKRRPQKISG
Method in brief: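 Binding is given as reads-per-million enrichment, pull-down over input, with replicates pooled. The bait was an N-terminus-lacking mouse FoxP3 or FoxP1 fragment with a His6-MBP tag, expressed in E. coli and used at 0.4 µM with 0.1 µM Klenow-filled degenerate double-stranded DNA library for 30 min at room temperature in Tris pH 7.5 buffer with NaCl and MgCl2. Amylose resin pull-down with three washes was followed by proteinase K release, PCR barcoding and Illumina sequencing.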
In the case of “GATGATTGTTCTCCCAGCTGATGAATTTTTAGGTTCGAGTAAACAAATTTTCCTAATCTTTCTGTTCAAGCGCCATCTAC”, the binding signal is reported as 0.874 RPM ratio (pull-down/input).
“GATGATTGTTCTCCCAGCTGATGAATTAGCACCCTCGAGTAAACAAATTTTCCTAATCTTTCTGTTCAAGCGCCATCTAC” was tested, and the binding signal was 0.887 RPM ratio (pull-down/input).
With “GATGATTGTTCTCCCAGCTGATGAATTTCTCGTATCGAGTAAACAAATTTTCCTAATCTTTCTGTTCAAGCGCCATCTAC” the binding signal was 0.867 RPM ratio (pull-down/input).
In the case of “GATGATTGTTCTCCCAGCTGATGAATTGATGCGCTCGAGTAAACAAATTTTCCTAATCTTTCTGTTCAAGCGCCATCTAC”, the binding signal is reported as 1.45 RPM ratio (pull-down/input).
In the case of “GATGATTGTTCTCCCAGCTGATGAATTGCATCACTCGAGTAAACAAATTTTCCTAATCTTTCTGTTCAAGCGCCATCTAC”, the binding signal is reported as 1.5 RPM ratio (pull-down/input).
In the case of “GATGATTGTTCTCCCAGCTGATGAATTTGGCGCGTCGAGTAAACAAATTTTCCTAATCTTTCTGTTCAAGCGCCATCTAC”, the binding signal is reported as 1.02 RPM ratio (pull-down/input).
With “GATGATTGTTCTCCCAGCTGATGAATTATAGAATTCGAGTAAACAAATTTTCCTAATCTTTCTGTTCAAGCGCCATCTAC” the binding signal was 0.945 RPM ratio (pull-down/input).
With “GATGATTGTTCTCCCAGCTGATGAATTCGCACTCTCGAGTAAACAAATTTTCCTAATCTTTCTGTTCAAGCGCCATCTAC” the binding signal was 0.925 RPM ratio (pull-down/input).
With “GATGATTGTTCTCCCAGCTGATGAATTTATGAGATCGAGTAAACAAATTTTCCTAATCTTTCTGTTCAAGCGCCATCTAC” the binding signal was 1.08 RPM ratio (pull-down/input).
For “GATGATTGTTCTCCCAGCTGATGAATTTACGAGTTCGAGTAAACAAATTTTCCTAATCTTTCTGTTCAAGCGCCATCTAC”, the binding signal was 1.16 RPM ratio (pull-down/input).
In the case of “GATGATTGTTCTCCCAGCTGATGAATTGACTCCCTCGAGTAAACAAATTTTCCTAATCTTTCTGTTCAAGCGCCATCTAC”, the binding signal is reported as 1.04 RPM ratio (pull-down/input).
With “GATGATTGTTCTCCCAGCTGATGAATTTTTGCGCTCGAGTAAACAAATTTTCCTAATCTTTCTGTTCAAGCGCCATCTAC” the binding signal was 0.799 RPM ratio (pull-down/input).
For “GATGATTGTTCTCCCAGCTGATGAATTTATAGACTCGAGTAAACAAATTTTCCTAATCTTTCTGTTCAAGCGCCATCTAC”, the binding signal was 0.965 RPM ratio (pull-down/input).
In the case of “GATGATTGTTCTCCCAGCTGATGAATTTAACCAGTCGAGTAAACAAATTTTCCTAATCTTTCTGTTCAAGCGCCATCTAC”, the binding signal is reported as 0.791 RPM ratio (pull-down/input).
With “GATGATTGTTCTCCCAGCTGATGAATTCTTCAGTTCGAGTAAACAAATTTTCCTAATCTTTCTGTTCAAGCGCCATCTAC” the binding signal was 0.849 RPM ratio (pull-down/input).
“GATGATTGTTCTCCCAGCTGATGAATTACACTACTCGAGTAAACAAATTTTCCTAATCTTTCTGTTCAAGCGCCATCTAC” was tested, and the binding signal was 1.14 RPM ratio (pull-down/input).
“GATGATTGTTCTCCCAGCTGATGAATTCAAGAGATCGAGTAAACAAATTTTCCTAATCTTTCTGTTCAAGCGCCATCTAC” was tested, and the binding signal was 0.784 RPM ratio (pull-down/input).
In the case of “GATGATTGTTCTCCCAGCTGATGAATTCTTTGGGTCGAGTAAACAAATTTTCCTAATCTTTCTGTTCAAGCGCCATCTAC”, the binding signal is reported as 0.822 RPM ratio (pull-down/input).
For “GATGATTGTTCTCCCAGCTGATGAATTTCTAGTGTCGAGTAAACAAATTTTCCTAATCTTTCTGTTCAAGCGCCATCTAC”, the binding signal was 0.945 RPM ratio (pull-down/input).
With “GATGATTGTTCTCCCAGCTGATGAATTAGTTGCCTCGAGTAAACAAATTTTCCTAATCTTTCTGTTCAAGCGCCATCTAC” the binding signal was 1.05 RPM ratio (pull-down/input).
For “GATGATTGTTCTCCCAGCTGATGAATTATTTATATCGAGTAAACAAATTTTCCTAATCTTTCTGTTCAAGCGCCATCTAC”, the binding signal was 1.75 RPM ratio (pull-down/input).
With “GATGATTGTTCTCCCAGCTGATGAATTCTGCTCCTCGAGTAAACAAATTTTCCTAATCTTTCTGTTCAAGCGCCATCTAC” the binding signal was 0.728 RPM ratio (pull-down/input).
For “GATGATTGTTCTCCCAGCTGATGAATTTACCTCCTCGAGTAAACAAATTTTCCTAATCTTTCTGTTCAAGCGCCATCTAC”, the binding signal was 1.07 RPM ratio (pull-down/input).
In the case of “GATGATTGTTCTCCCAGCTGATGAATTATATGACTCGAGTAAACAAATTTTCCTAATCTTTCTGTTCAAGCGCCATCTAC”, the binding signal is reported as 0.981 RPM ratio (pull-down/input).
“GATGATTGTTCTCCCAGCTGATGAATTTTTAGTCTCGAGTAAACAAATTTTCCTAATCTTTCTGTTCAAGCGCCATCTAC” was tested, and the binding signal was 0.983 RPM ratio (pull-down/input).
With “GATGATTGTTCTCCCAGCTGATGAATTTAATGCGTCGAGTAAACAAATTTTCCTAATCTTTCTGTTCAAGCGCCATCTAC” the binding signal was 1.22 RPM ratio (pull-down/input).
“GATGATTGTTCTCCCAGCTGATGAATTTCTTATATCGAGTAAACAAATTTTCCTAATCTTTCTGTTCAAGCGCCATCTAC” was tested, and the binding signal was 0.948 RPM ratio (pull-down/input).
With “GATGATTGTTCTCCCAGCTGATGAATTGGGGAAGTCGAGTAAACAAATTTTCCTAATCTTTCTGTTCAAGCGCCATCTAC” the binding signal was 0.788 RPM ratio (pull-down/input).
For “GATGATTGTTCTCCCAGCTGATGAATTTTGCACATCGAGTAAACAAATTTTCCTAATCTTTCTGTTCAAGCGCCATCTAC”, the binding signal was 1.07 RPM ratio (pull-down/input).
With “GATGATTGTTCTCCCAGCTGATGAATTTCGGCGGTCGAGTAAACAAATTTTCCTAATCTTTCTGTTCAAGCGCCATCTAC” the binding signal was 0.736 RPM ratio (pull-down/input).
For “GATGATTGTTCTCCCAGCTGATGAATTTTTGGGGTCGAGTAAACAAATTTTCCTAATCTTTCTGTTCAAGCGCCATCTAC”, the binding signal was 0.802 RPM ratio (pull-down/input).
“GATGATTGTTCTCCCAGCTGATGAATTACCCTACTCGAGTAAACAAATTTTCCTAATCTTTCTGTTCAAGCGCCATCTAC” was tested, and the binding signal was 0.96 RPM ratio (pull-down/input).
